Measurements from patent US20100330617A1 (Sanofi, published 2010).

Target: protein A sepharose (Pierce) (UniProt P38507)
Assay: incubation with protein A sepharose, SDS-PAGE and Coomassie

B1: recombinant hIL6 (ligand)
chain: not shown
  binding result: no binding
